The results in this text go back to PMC6919601, “Identification of Plasmodium dipeptidyl aminopeptidase allosteric inhibitors by high throughput screening” (PLoS ONE, 2019).

Hit rate of the full screen: of about 110,000 compounds, about 230 (0.21%) showed an effect of 50% or more. Some of the results follow.
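Also: 30 min substrate incubation versus DMSO and 10 µM JCP410 controls.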

In the assay the target is DPAP1 (Plasmodium falciparum, UniProt Q8IIJ9). Kind of assay: primary screen, percent inhibition; read by cleavage of a fluorogenic dipeptide substrate; higher = more effect of the substance. Also noted: species or system P. falciparum D10 trophozoite lysates; single well.
Sequence of DPAP1 (Q8IIJ9 whole entry, looked up): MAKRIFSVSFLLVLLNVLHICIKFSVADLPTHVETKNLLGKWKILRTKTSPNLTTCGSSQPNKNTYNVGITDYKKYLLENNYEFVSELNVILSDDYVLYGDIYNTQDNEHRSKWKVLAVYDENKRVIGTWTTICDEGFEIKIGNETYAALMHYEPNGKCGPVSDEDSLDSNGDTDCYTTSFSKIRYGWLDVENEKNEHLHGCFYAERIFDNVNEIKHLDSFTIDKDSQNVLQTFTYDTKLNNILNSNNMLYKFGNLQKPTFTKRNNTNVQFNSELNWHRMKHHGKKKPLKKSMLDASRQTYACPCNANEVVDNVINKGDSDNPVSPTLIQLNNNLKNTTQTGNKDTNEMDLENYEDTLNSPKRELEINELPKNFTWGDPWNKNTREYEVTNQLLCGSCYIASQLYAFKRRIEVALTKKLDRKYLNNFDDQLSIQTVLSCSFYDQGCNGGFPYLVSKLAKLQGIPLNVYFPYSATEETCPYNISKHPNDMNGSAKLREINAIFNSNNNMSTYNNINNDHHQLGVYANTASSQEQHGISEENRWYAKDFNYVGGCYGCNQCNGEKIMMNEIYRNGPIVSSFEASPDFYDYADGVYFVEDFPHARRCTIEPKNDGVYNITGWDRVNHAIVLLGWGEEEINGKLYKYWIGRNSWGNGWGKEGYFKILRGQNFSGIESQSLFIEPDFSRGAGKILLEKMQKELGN
For `CC1CCCC(N(Cc2ccco2)C(=O)Nc2cn(C)c(=O)c3ccccc23)C1C` (centres unmarked), the “% Inhibition @ 10 uM” value amounted to 2.99%.
For `O=C1/C(=C\c2ccncc2)N2CCC1CC2` the value was -0.996%; for `CCOC(=O)c1c(NC(=O)Cn2nnc3ccccc32)sc2c1CCCC2`, 4.54%; for `COc1cccc(C2=NS(=O)(=O)N(C)C(C(=O)NC(C)(C)C)=C2)c1`, 6.98%.
For `CC1=C(c2cccc(Br)c2)S(=O)(=O)N=C1N1CCC2(CC1)OCCO2` the value was -2.85%; for `COc1ccc(-c2nc3c(n2O)CCc2nonc2-3)cc1`, -3.26%; for `COc1ccc(CC(=O)n2nc(-c3ccc(Cl)cc3)nc2NCc2ccco2)cc1OC`, -1.11%.
For `CC(=O)Nc1ccc(NC(=O)Nc2ccccc2)cc1` the value was 4.67%; for `C(#Cc1ccccc1)CN1CCN(c2ccccn2)CC1`, 0.0289%.
Regarding `CC1=NC(C(F)(F)F)(C(F)(F)F)N=C2C=CC=CN12`, the “% Inhibition @ 10 uM” value is 0.032%.
For `O=C(Nc1cc(Cl)ccc1Cl)[C@@H]1C[C@@H]1c1ccccc1` the value was 1.96%; for `CC1CC(C)CN(C(=O)CSc2nc(O)c3c(n2)CCC3)C1` (centres unmarked), -6.52%; for `O=[N+]([O-])c1ccc(N2CCN(Cc3ccoc3)CC2)cc1`, -6.21%.
As for `COc1ccc(OC)c(-n2nnc(-c3nsc(NC(=O)c4cccs4)n3)c2C)c1`, the figure is -4.35%.
As for `CC(=O)N(CN1C(=O)CCC1=O)c1cccc(Cl)c1`, the figure is 0.674%; as for `CN(C)CCN(C)Cc1ccc(O)cc1`, -6.12%.
In the case of `O=C(COc1cccc(NC(=O)c2ccccc2)c1)c1ccc(F)cc1`, the “% Inhibition @ 10 uM” value was -0.123%.
As for `CCC1OC(c2ccc(OC)cc2)=Nc2ccccc21` (centres unmarked), the figure is -3.95%; as for `CC(C)CC1=NN2C(=N)/C(=C/c3cc(Cl)c(O)c(Cl)c3)C(=O)N=C2S1`, -3.06%.
As for `O=[N+]([O-])c1ccccc1CN1CCC(N2CCCCC2)CC1`, the figure is -5.42%; as for `CCOc1ccc2c(c1)C(C)=CC(C)(C)N2Cc1cccc(CN2c3ccc(OCC)cc3C(C)=CC2(C)C)c1`, -4.35%; as for `O=C(CN(Cc1ccccc1)S(=O)(=O)c1ccccc1)NCc1ccncc1`, 0.146%.
For `Cc1ccc2[nH]c(O)c(N=O)c2c1Br` the value was -3.77%.
In the case of `Cc1c(Cc2ccccc2)sc(N)c1C(N)=O`, the “% Inhibition @ 10 uM” value was -0.711%.
As for `CNS(=O)(=O)c1cc(O)c2c(S(=O)(=O)NC)cccc2c1`, the figure is -0.294%; as for `CN(CCO)S(=O)(=O)c1ccc2c(c1)oc(=O)c1cc(S(=O)(=O)N(C)CCO)ccc12`, -6.23%.
As for `CC(C)(C)c1ccc(OCc2nnc(-c3ccccc3Cl)o2)cc1`, the figure is -2.99%; as for `CCN1CCN(C(=O)c2ccc3c(c2)sc2nc(-c4ccc(C)cc4)cn23)CC1`, 6.88%; as for `COc1ccccc1C(=O)Nc1ccc(NC(C)=O)cc1`, -3.92%.
For `CC(C)(C)C(=O)N1CCCC1C(=O)Nc1ccc2ccccc2c1` (centres unmarked) the value was 2.01%; for `COc1ccc(C2=N/C(=C\c3cc(OC)c(OC)c(OC)c3)C(=O)O2)c(Cl)c1`, 6.38%; for `CSc1nc2oc3c(c2c2nnnn12)CC(C)(C)OC3`, -4.43%.
Take `N#Cc1c(C(F)(F)F)cc(-c2ccccc2)nc1SCC(=O)Nc1nonc1-n1cccc1`: the “% Inhibition @ 10 uM” value came to 5.49%.
For `CCO[C@H](C)[C@@H](NC(=O)OCc1ccccc1)C(=O)NCC#N` the value was -0.116%; for `CC(C)(C)C1=C[C@@H](CO)C[C@@H](CO)C1`, 29.7%; for `Cc1ccc2c(c1)c1c3n2CCN(CC(O)COc2ccccc2)C3CCC1` (centres unmarked), -4.61%.
As for `O=C(NCc1cccc(Cl)c1)c1cc2cccc3c2n1CCS3`, the “% Inhibition @ 10 uM” value is reported as -0.767%.
As for `Cc1c(C(=O)NCC(c2ccco2)N(C)C)oc2ccc(Cl)cc12` (centres unmarked), the figure is 9.21%; as for `CS(=O)(=O)N(CC(=O)Nc1ccc2c(c1)OCO2)c1ccccc1F`, -0.598%; as for `O=C(Nc1cccc(Cl)c1Cl)c1cccc2ccccc12`, -0.268%.
Take `O=c1c(-c2ccccc2)c(C(F)(F)F)oc2cc(O)ccc12`: the “% Inhibition @ 10 uM” value came to 19.4%.
As for `CC1CCN(S(=O)(=O)c2ccc3nc(O)ccc3c2)CC1`, the figure is -3.57%; as for `CCOC(=O)N1CCN(c2cc(C)nc3nc(-c4ccccc4C)nn23)CC1`, -0.946%; as for `CC(=O)c1ccc(NC(=O)COc2cc(Cl)c(Cl)cc2Cl)cc1`, 4.06%.
As for `CCC(Cc1ccccc1)NS(=O)(=O)c1csc(C(N)=O)c1` (centres unmarked), the figure is -2.26%; as for `CCc1nn(CC(=O)O)c(=O)c2cc3c(OC)cccc3n12`, 6.31%; as for `COC(F)(C(=O)Nc1cccc(Nc2ccccc2)c1)C(F)(F)F` (centres unmarked), 1.88%.
Consider `O=C1OC(c2ccccc2)=C/C1=C/c1ccc(Cl)cc1Cl`, for which the “% Inhibition @ 10 uM” value was -2.27%.
As for `CC(C)Oc1cccc(C(=O)Nc2ccc(CN3CCOCC3)cc2)c1`, the figure is -4.52%.
As for `Clc1ccc(CCNCc2c[nH]c3ccccc23)c(Cl)c1`, the figure is 0.177%.
